The results in this text go back to PubChem BioAssay (NCI).

SMILES strings stand for the structures. A structure can be active in one record and inactive in another.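 Compound tested at a single concentration for 48 hours in 96-well plates; a percent growth value below 10 was scored as active.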 Some entries of the source have several records that differ or are many. Only these are listed. There may be further records. This drug was run again and again over the years, at the concentration stated with the values; each value is one run. Brackets with × say how often a value occurs here.

For one experiment, the system named is OVCAR-3 ovarian. In words: NCI-60 one-dose screen, 48 h (100 = growth as untreated, 0 = no growth, -100 = all killed).
Another experiment has as its system HS 578T breast. The experiment is described as above. Conditions: 0.25 µM.

On to `COc1cccc2c1C(=O)c1c(O)c3c(c(O)c1C2=O)C[C@@](O)(C(=O)CO)C[C@@H]3OC1CC(N)C(O)C(C)O1` (stereo not given in full), for which the growth result was “inactive: 57.8, 59.4, 78.8, 58, 54.1, 67.9, 66.7 (2×), 64.4, 63.9, 61.9, 69.1, 65.1, 65.4, 64.3, 83.2, 66.5, 76.1, 62.8, 63.8, 70.6, 71.7, 81.1%” in the experiment with OVCAR-3 ovarian (0.25 µM, runs of 2020); “inactive: 77.3 (2×), 74, 71.4, 65.6, 57.6, 64.3, 75, 74.8, 58.2, 62.8, 63.4 (2×), 62.2, 61, 68.6, 65.1, 61.2, 81, 72.1, 66.2, 70.2, 63.1, 63.9, 63.8, 59.7, 49.8, 62.6, 69.9, 70.7, 63%” in the experiment on OVCAR-3 ovarian (0.25 µM, runs of 2021); “inactive: 24.7, 25.9, 52.2, 53.6, 54.6, 38.6, 54, 60.3, 70, 50.3, 61.4, 74.9, 38.1, 69.4, 54.1, 56.5, 47.3, 85.7, 92.3, 62.1, 94.3, 86.6, 93.3, 65.5, 65.6, 62.3, 74.3% and active: 7.37%” in the experiment with OVCAR-3 ovarian (0.25 µM, runs of 2022); “active: 0.251, -14, -16.5, -23.6, 5.38, -25.5, 0.819, -3.54, -8.31, -12.2, 4.16, 3.27, -4.7, -23.1, -10.9, -11.1, -12% and inactive: 27.8%” in the experiment with OVCAR-3 ovarian (25 µM, runs of 1991); “active: -16.4, -32.6, -32.5, -4.02, 3.93, -2.44, -2.03, -0.142, -5.73, -31.8, -36, -35.9 (2×), -23.1, -28.4, 6.28, -2.75, 3.67, -2.5, -6.14, -16.3, -3.44, -34.7, -24, -27.1, -6.11, -21.7, -17.8, 6.11, -24.4, -6.68, -23.3, 2.42, -19.4, 2.26, -7.75, 2.19, -9.55, 0.661, -14.6, -66.7, -27.9, -5.98, -13.2, -23.2, -17.6, -28.7, -43.2, -18.1 (2×), 2.88, -9.98, -7.99, -26.8 (2×), -18.5, -17.7, -28.1, -22.9, -85.6, -82.2, -87.3, -0.559, 2, -13.4, -46.5, -25.1, -10.5, -43.9, -28.9, -45.3, -36.9, -18.3, -56.7, 1.46, -1.52, 2.13, 0.986, -43.7, -19.2, -12.2, 0.464, -31.3, -40.9, -23, -25.3, -21.2, -21.8, -32.4, 1.31, -11, -7.53, -9.92, -34.9, -28.5, -35.8, -40.5, -33, -46.3, 6.1, -3.14, -12.9, -4.04, -8.75, -22.4, -33.7, 5.82, -15.6, -4.81, -28.8, -5.52, -27, -44.5, 0.547, -3.75, -23.6, -15, -49.1% and inactive: 32.6%” in the experiment with OVCAR-3 ovarian (25 µM, runs of 1992); “active: -12.6, 6.55, -21.9 (2×), -17.8, -17.7 (2×), -28.5, -31.9, -30.2, 0.9, -2.16, 0.858, 5.9, -20.5, -28.7, -34.8, -8.12, -13.9 (2×), 2.06, -22.4, -25.4, -12.8, -5.41, -36.2, -3.36, -13.4, -27.1, -33.2, -1.03, -14.4, -7.57, -8.44, -14.2, -12.9, -4.44, 4.97, -21.3, -11.2, -14.9, -12.4, -24.7, -8.14% and inactive: 13%, 21.9%” in the experiment with OVCAR-3 ovarian (25 µM, runs of 1993). Also, the growth result in the experiment with OVCAR-3 ovarian (25 µM, runs of 1994) was “active: -22.9, -26.5, -33.4, -10.1, -18.3 (2×), -0.255, -19.8 (2×), 8.59, 7.14, -8.83, -21.4, -4.85, 2.28, -23, -93.5, 5.26, 5.07, -35, -0.634, -24.2, 0.124, 4.57, -8.93, -21.2, 3.6, -26.8, -31.4, -10.9% and inactive: 11.2%”; with OVCAR-3 ovarian (25 µM, runs of 1995) it was “active: -14.7, 1.3, -11.5, -34.8, -15.2, -35, 8.23 (2×), 8.82, -17.8, -39, 1.54, -13.2, -6.35, 2.02, 4.81, -29.8, -25.1, -12.4, -24, -14.2, -26.4, -5.96, -23.8, -2.99, 9.68, -33.4, -2.17, -27.2, -27.7, -18.4, 4.02, -27.8, -4.01, -22.3% and inactive: 19.4%”; with OVCAR-3 ovarian (25 µM, runs of 1996) it was “active: 0.724, -16.9, 5.05, 7.67, 9.42, 4.16, 7.93, -2.26, 2.18, -8.94, -3.08, -4.34, -19.7, -9.79, -23, -13.4, -6.91, -17.2, -4.02, -12, -38.6, -5.17, -27.8 (2×), -15, -11.6, -11.3, -4.48, -0.761, -14.8, -8.53, -7.4, -19.4, -29.4, -10, -4.29, -0.716, -8.46, -28.5 (2×), -23.9, -14.6, 1.93, -24.4, -9.82, -15.6, -16.2, -12.6, 1.8, 6.05, -21.5, 3.14% and inactive: 45.1, 106, 12.6, 22.5%”; with OVCAR-3 ovarian (25 µM, runs of 1997), “active: -6.63, -7.75, -22.6, -8.29, -27.9, -25.7, 6.32, -10.6, -10.2, -14.4, -1.87, -31.3, -32.7, -10.4, -31.5, -10.5, 7.14, -14.6, -1.15, -2.66, -28.8, -21.5, 4.4, -28.3, -0.639, -30.8 (2×), -37.3, -3.69, 1.14, -22.2, -26.3, -41.5, -12.1, -10.3, -32.5, -50.8, -8.58, -15.1, -16, -37, -40.4% and inactive: 18.4%”; in the experiment with OVCAR-3 ovarian (25 µM, runs of 1998), “active: -6.3, -28.4, -11.7, 4.07, -6.36, -30.9, -8.02, -28.9, -9.21, -24.5, -35, -25.4, 9.88, -20.1, 0.0181, -3.18, -21, 7.22, 4.41, -24.3, 1.03% and inactive: 21.7%”; in the experiment on OVCAR-3 ovarian (25 µM, runs of 1999) it was “active: -38.9, -30.3, -17.6, -9.08, -51.7, 2.53, -81, -5.68, -62.7, -71.7, -40.3, -48.6, -100, -64.2, -66.5% and inactive: 24%, 42.8%, 18.5%”. The growth result is “active: 5.01, -100, -74.8, -78.1%” in the experiment on OVCAR-3 ovarian (25 µM, runs of 2000); “active: -16.1% and inactive: 41.3%” in the experiment on HS 578T breast (runs of 2006); “inactive: 41.5, 65.4, 47.9, 39.8, 31.2, 56.1, 50.7, 60, 55.8, 51.3, 57.5, 189, 59.8, 33.4, 78.9 (2×), 11.2, 35, 51.1, 67.5, 58.4, 63.8, 38.1, 59.2, 24, 66.8, 66.2, 15.9, 77, 58.1 (2×), 56, 37.2, 39, 57.4, 50.2, 49, 70.5, 64.5% and active: 7.36%” with HS 578T breast (runs of 2007).
